Laboratory results taken from PMC4336329 (PLoS ONE, 2015).
Hit rate of the full screen: of about 310,000 compounds, about 14,000 (4.5%) showed an effect of 50% or more. Effects have a minus sign here. Some of the results follow.

The compounds below were run against human ether-à-go-go-related gene (hERG) potassium channel (human, UniProt Q12809) (assay: primary screen, population patch clamp on CHO cells stably expressing hERG).
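Further: peak tail current of the secondary pulse compared with the same well before compound.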

human ether-à-go-go-related gene (hERG) potassium channel, sequence (Q12809 whole entry, looked up): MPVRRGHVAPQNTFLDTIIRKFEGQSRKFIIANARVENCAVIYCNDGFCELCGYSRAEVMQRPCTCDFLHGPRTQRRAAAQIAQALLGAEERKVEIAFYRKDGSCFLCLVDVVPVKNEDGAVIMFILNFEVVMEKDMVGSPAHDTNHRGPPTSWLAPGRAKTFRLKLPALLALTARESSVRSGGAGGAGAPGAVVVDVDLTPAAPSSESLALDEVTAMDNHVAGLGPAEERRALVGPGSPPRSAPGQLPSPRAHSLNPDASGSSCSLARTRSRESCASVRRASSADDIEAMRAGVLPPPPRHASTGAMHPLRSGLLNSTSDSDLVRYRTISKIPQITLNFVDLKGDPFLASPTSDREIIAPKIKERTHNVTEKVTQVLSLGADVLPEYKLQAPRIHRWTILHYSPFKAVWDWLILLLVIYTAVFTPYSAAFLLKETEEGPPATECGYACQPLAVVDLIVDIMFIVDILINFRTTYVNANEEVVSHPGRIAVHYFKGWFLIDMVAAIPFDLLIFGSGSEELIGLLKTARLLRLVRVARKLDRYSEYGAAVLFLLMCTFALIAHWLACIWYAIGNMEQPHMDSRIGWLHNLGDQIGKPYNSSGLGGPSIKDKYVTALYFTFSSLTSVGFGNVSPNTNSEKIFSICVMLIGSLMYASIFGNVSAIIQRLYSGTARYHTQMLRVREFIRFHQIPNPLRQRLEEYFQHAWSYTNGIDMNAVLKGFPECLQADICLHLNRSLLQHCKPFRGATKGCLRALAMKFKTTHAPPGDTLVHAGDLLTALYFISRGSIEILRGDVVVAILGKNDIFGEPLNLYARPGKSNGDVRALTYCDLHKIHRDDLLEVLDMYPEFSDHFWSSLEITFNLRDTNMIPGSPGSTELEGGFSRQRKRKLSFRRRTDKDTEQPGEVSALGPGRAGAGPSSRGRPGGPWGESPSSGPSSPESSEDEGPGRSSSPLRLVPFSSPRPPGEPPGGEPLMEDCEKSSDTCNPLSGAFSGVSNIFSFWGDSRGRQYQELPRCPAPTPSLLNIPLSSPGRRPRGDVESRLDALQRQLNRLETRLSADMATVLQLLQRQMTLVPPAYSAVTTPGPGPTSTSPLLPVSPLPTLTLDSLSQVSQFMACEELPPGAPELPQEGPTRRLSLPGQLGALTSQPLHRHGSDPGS

Row | SMILES | hERG current change (%, negative = inhibition) at 10uM [%]
1 | Cc1ccc(NC(=S)NCCCN2CCOCC2)cc1C | 3.72
2 | CC(=O)NC1(c2ccccc2)CCN(c2cc(C)nc(-c3ccccc3)n2)CC1 | -38.4
3 | COc1cccc(-c2nc3ccccc3c(=O)n2NC(=O)c2cccnc2Cl)c1 | 6.55
4 | COC(=O)c1cc(Nc2cc(C)c3c(O)cccc3n2)cc(C(=O)OC)c1 | -21.7
5 | CC(=O)N1CCN(Cc2nc3cc(NC(=O)NC4CCCCC4)ccc3n2C)CC1 | 14.3
6 | Cc1cccc(-n2c(=S)[nH]c3nc4c(cc3c2=O)COC(C)(C)C4)c1 | 16.9
7 | O=C(NCC1CCCO1)C(c1cccnc1)N(C(=O)Cc1cccs1)c1ccccc1 (stereo not drawn) | -1.28
8 | CCC(C)(C)n1nnnc1C(c1cc2cc(C)ccc2[nH]c1=O)N1CCCC1 (stereo not drawn) | -9.97
9 | Cc1ccc(NCc2ccc(Cl)nc2)c(NCc2ccc(Cl)nc2)c1 | -47.6
10 | CCOc1ccc(/C=C/C(=O)OCC(=O)NCCc2ccc(OCC)c(OCC)c2)cc1OC | -14.7
11 | CCOC(=O)C1(CCOC)CCN(C(=O)c2sccc2C)CC1 | 9.22
12 | COc1cc(CNc2ncn[nH]2)cc(Br)c1OC | 9.68
13 | O=[N+]([O-])c1ccc(N2CCN(c3ccccc3O)CC2)c(Cl)c1 | 9.9
14 | CC(C)(C)c1ccc(C(=O)NCC(=O)OCCN2C(=O)c3ccccc3C2=O)cc1 | -16.3
15 | O=C(CN(c1cccc(Cl)c1)S(=O)(=O)c1ccc(Cl)cc1)NCc1ccccn1 | -53.1
16 | CC(C)(C)C(=O)Nc1cc(S(=O)(=O)Nc2ccc(Cl)cc2)ccc1Cl | -4.45
17 | CC(=O)CCC(=O)N1CCCC(N2CCN(c3cccc(Cl)c3)CC2)C1 (stereo not drawn) | -2.63
18 | CC(C)(C)NC(=O)NC(=O)CSc1ncc(C(F)(F)F)cc1Cl | 5.68
19 | COc1ccc(NS(=O)(=O)c2cn(C)nc2C)cc1 | -2.27
20 | COc1ccccc1CNC(=O)CCC1N=C2c3ccccc3N=C(SCC(=O)NCC3CCCO3)N2C1=O (stereo not drawn) | -1.25
21 | CC(=O)OCCCCCCCCCCC[N+]1(C)CCCCC1.[I-] | -7.49
22 | O=C1CC(c2cccs2)Cc2nc(NC(=O)C3CC3)ncc21 (stereo not drawn) | -10.3

Row | SMILES | hERG current change (%, negative = inhibition) at 10uM [%]
23 | Cc1ccc(S(=O)(=O)N2CCCC2C(=O)NCCc2ccccc2)cc1 (stereo not drawn) | -4.46
24 | CC(C)NC(=O)COC(=O)Cn1[nH]c(=O)c2ccccc2c1=O | 12.2
25 | Cc1cc(NC(=O)CCc2ccc(-c3ccccc3)o2)no1 | 8.58
26 | COc1cccc(C2c3[nH]c4ccccc4c3CCN2Cc2cnn(C)c2)c1 (stereo not drawn) | -69.6
27 | O=S(=O)(Nc1ncccn1)c1ccc(NC(=S)NCCc2ccccc2)cc1 | -2.45
28 | CN(NC1OC(=O)c2ccccc21)c1ncc(C(F)(F)F)cc1Cl (stereo not drawn) | 12.9
29 | COc1cc(C(=O)Nc2nccs2)cc(OC)c1OC | 3.55
30 | CCOC(=O)CCNC(=O)N1CCC(CCOc2ccccc2)(C(=O)OCC)CC1 | -16.1
31 | CCc1nnc(NC(=O)CSc2nnc(CNc3cccc(Cl)c3)n2CC)s1 | -59.6
32 | O=C(NCc1ccc(F)cc1)c1ccc(CS(=O)Cc2ccccc2Cl)o1 (stereo not drawn) | -37.3
33 | COc1ccc(OC)c(/C=C/C(=O)OCC(=O)NC2CCCCCCC2)c1 | -4.68
34 | CCNC(=S)N/N=C/c1ccco1 | 3.39
35 | COCCn1c(=O)[nH]c2cc(C(=O)N3CCN(c4cccc(C)c4C)CC3)ccc2c1=O | 13.2
36 | CCn1cc(/C=C/c2cc[n+](C)cc2)c2ccccc21.[I-] | -56.1
37 | CC(C)(C)SCCNC(=O)COc1ccc(Cl)cc1 | -12.2
38 | COc1cccc(-c2nnc(SCC(=O)Nc3cc(C)on3)n2C)c1 | 1.12
39 | O=C(Nc1ccccc1)NC1CCCCC1 | 7.36
40 | CCOC(=O)C1CCN(C(=O)C2CC(=O)N(c3ccc4c(c3)OCCO4)C2)CC1 (stereo not drawn) | -3.89
41 | COc1cccc(NC(=S)NCCC(c2ccccc2)c2ccccc2)c1 | 2.82
42 | CC(C1CC2CCC1C2)n1c(-c2ccco2)n[nH]c1=S (stereo not drawn) | -15.2
43 | N#Cc1c(SCC(=O)O)nc(N2CCCCC2)c2c1CCCC2 | 7.31
44 | Cn1c(CCN2CCN(c3ccccn3)CC2)nc2cc(NC(=O)COc3ccc(Cl)cc3)ccc21 | -22.7

Row | SMILES | hERG current change (%, negative = inhibition) at 10uM [%]
45 | CN1C(=O)N(C)C2(c3ccccc3)Nn3c(s/c(=C/c4ccccc4)c3=O)=NC12c1ccccc1 (stereo not drawn) | 27.1
46 | Cc1nn(C)c(C)c1NC(=O)CCl.Cl | 10.5
47 | CC(C)Cc1cc(-c2ccco2)c(C#N)c(N)n1 | 1.51
48 | CC1(C)CC(=O)C=C(NCc2ccccc2)C1 | -4.83
49 | O=C1N/C(=N/N=C/c2ccco2)SC1Cc1ccccc1 (stereo not drawn) | 0.361
50 | Cc1cc(C)c(C#N)c(SCC(=O)NC(C)(C)C)n1 | -19.7
51 | O=C(CCCN1C(=O)/C(=C\c2ccccc2)SC1=S)Nc1ccc(O)cc1 | 1.61
52 | CC(C)[C@H](NC(N)=O)C(=O)Nc1ccc2c(c1)CCC2 | -2.49
53 | O=C(COc1ccc(S(=O)(=O)N2CCCC2)cc1Cl)N1CCN(c2ccccc2)CC1 | -15.5
54 | O=C(CSc1ccc(F)cc1)Nc1ccc(N2CCOCC2)c(Cl)c1 | -20.3
55 | COc1ccc(CCN(C)C(=O)c2ccc(OCC(=O)N3CCOCC3)c(OC)c2)cc1OC | 24.1
56 | CN(C)C(=O)c1cc(C(=O)c2c(F)cccc2F)c[nH]1 | 14.9
57 | COc1ccc(CCNC2CC(=O)N(CCc3ccc(OC)c(OC)c3)C2=O)cc1 (stereo not drawn) | 2.18
58 | Cc1cc(O)c(NC(=O)c2ccco2)cc1C | 1.74
59 | Cc1nc(Cl)c(C(=O)NCc2ccccc2)c(C)c1Cl | 7.85
60 | COc1ccc(Nc2nc(C)cc(-c3cc(-c4ccccc4)on3)n2)cc1 | 9.62
61 | CN(C(=O)c1ccc(NC(=O)Cc2ccccc2)cc1)c1ccccc1 | 1.32
62 | COc1ccccc1N1CCN(C(=O)/C=C/c2cccc([N+](=O)[O-])c2)CC1 | -16.1
63 | COc1ccccc1OCC(=O)Nc1ccc(O)cc1C(=O)O | 0.029
64 | CC1(C(=O)NCC2CC2)C=CC2(CCCCC2)N1C(=O)c1ccccc1 (stereo not drawn) | -14.3
65 | COc1ccc(-c2c(-c3cc(OC)cc(OC)c3)n(C)c3ccc(-c4cccc5[nH]ccc45)cc23)cc1 | 16.7
66 | CC1Cc2ccccc2N1C(=O)COC(=O)CSc1ccc(F)cc1 (stereo not drawn) | -10.1

Row | SMILES | hERG current change (%, negative = inhibition) at 10uM [%]
67 | CCOc1ccccc1NC(=O)c1ccc([N+](=O)[O-])cc1 | 6.23
68 | Cc1oc2c(c(C)cc3oc(=O)c(CC(=O)NCC(=O)NCC(=O)O)c(C)c32)c1C | 10.7
69 | CC(C)CNC(=S)NNC(=O)c1nn(C)cc1Cl | -7.21
70 | O=C(c1cc(F)ccc1F)C1CCCN(C(=O)c2ccc(F)cc2Cl)C1 (stereo not drawn) | -23.3
71 | CCC1Nc2ncnc(N3CCCCC3)c2N(Cc2ccc(Br)cc2)C1=O.O=C(O)C(F)(F)F (stereo not drawn) | -47
72 | O=C(COC(=O)Cc1ccsc1)Nc1ccc(S(=O)(=O)N2CCOCC2)cc1 | 1.21
73 | Clc1ccc(-n2nnnc2-c2cnc3ccc(Cl)cc3c2-c2ccccc2)cc1 | 5.46
74 | COc1ccc(/C=C\c2onc(C)c2S(=O)(=O)N2CCC(C(=O)NCc3ccco3)CC2)cc1 | -4.91
75 | CN(c1ccccc1)S(=O)(=O)c1cccc(NC(=O)CN2CCCc3ccccc32)c1 | -2.81
76 | Cc1c(NC2=CC(=O)CC(C)(C)C2)c(=O)n(-c2ccccc2)n1C | 9.39
77 | CCn1c(=O)c(C(=O)NCCCO)c(O)c2ccccc21 | 10.1
78 | Cc1cc(C)n(CCNC(=O)c2ccco2)n1 | 11.9
79 | FC(F)(F)c1cc(C(F)(F)F)c2ccc(N3CCN(c4ccccc4)CC3)nc2n1 | 3.36
80 | O=c1c2[nH]c3ccc(Br)cc3c2ncn1CCCn1ccnc1 | -64.4
81 | O=C(NCc1ccc(F)cc1)c1ccc2c(c1)S(=O)(=O)c1ccccc1C2=O | -0.602
82 | O=C(NC1CC2CCCC(C1)N2C(=O)NC1CCCCC1)c1ccccc1 (stereo not drawn) | -0.519
83 | C=CCNC(=O)c1ccc(-c2nc3ccccc3nc2-c2ccccc2)cc1 | -38.3
84 | Cc1cc(C(=O)COC(=O)CCc2nc3ccccc3s2)c(C)n1C | 2.19
85 | COc1ccccc1CCC(=O)OCC(=O)Nc1cc(S(=O)(=O)N2CCOCC2)ccc1C | -44.3
86 | O=C(Nc1cccc(S(=O)(=O)N2CCCCC2)c1)c1cc2ccccc2o1 | -11.1
87 | COc1ccc(CN2CC(=O)N3[C@H]4c5ccc(OC)cc5OC[C@@H]4[C@H](c4ccccc4)[C@]3(C)C2=O)cc1 | 8.67
